Measured values taken from publication PMC4336329 (PLoS ONE, 2015).
Screen size: about 310,000 compounds; about 2,200 (0.71%) showed an effect of 50% or more. Effects have a minus sign here. This is one part of the list.

Biological target: human ether-à-go-go-related gene (hERG) potassium channel (human, UniProt Q12809)
Assay: primary screen, population patch clamp on CHO cells stably expressing hERG

human ether-à-go-go-related gene (hERG) potassium channel, sequence (Q12809 whole entry, looked up): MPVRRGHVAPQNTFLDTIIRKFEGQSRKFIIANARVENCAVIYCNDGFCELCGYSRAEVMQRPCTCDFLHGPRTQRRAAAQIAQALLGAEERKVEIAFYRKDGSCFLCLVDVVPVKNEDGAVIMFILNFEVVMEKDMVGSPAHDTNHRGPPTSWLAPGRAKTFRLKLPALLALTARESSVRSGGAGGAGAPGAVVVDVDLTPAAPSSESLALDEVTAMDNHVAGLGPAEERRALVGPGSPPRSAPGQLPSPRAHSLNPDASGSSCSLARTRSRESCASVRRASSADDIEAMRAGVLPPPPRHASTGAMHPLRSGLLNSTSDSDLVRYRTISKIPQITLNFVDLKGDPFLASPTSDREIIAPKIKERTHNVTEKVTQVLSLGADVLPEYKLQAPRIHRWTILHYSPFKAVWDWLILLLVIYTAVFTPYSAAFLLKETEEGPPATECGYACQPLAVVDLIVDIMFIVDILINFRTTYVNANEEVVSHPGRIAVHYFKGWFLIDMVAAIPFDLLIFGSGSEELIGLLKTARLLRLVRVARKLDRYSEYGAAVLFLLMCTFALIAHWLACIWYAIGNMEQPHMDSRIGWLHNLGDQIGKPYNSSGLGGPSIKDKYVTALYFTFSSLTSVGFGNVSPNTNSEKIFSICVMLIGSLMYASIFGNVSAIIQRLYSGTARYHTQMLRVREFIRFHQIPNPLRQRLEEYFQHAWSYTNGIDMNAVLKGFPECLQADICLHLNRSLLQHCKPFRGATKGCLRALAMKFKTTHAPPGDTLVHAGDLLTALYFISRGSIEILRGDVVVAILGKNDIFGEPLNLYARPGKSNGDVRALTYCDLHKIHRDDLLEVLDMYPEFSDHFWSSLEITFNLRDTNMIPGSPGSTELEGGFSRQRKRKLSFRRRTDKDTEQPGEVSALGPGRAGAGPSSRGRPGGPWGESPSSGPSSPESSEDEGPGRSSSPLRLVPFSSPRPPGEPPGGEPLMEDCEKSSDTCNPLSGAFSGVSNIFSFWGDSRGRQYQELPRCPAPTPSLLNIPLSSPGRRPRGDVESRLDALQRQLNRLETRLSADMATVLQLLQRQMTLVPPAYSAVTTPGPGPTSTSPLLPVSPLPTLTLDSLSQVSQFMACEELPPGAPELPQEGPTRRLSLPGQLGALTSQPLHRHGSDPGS

| SMILES | hERG current change (%, negative = inhibition) at 1uM [%] |
| --- | --- |
| COc1ccc([N+](=O)[O-])cc1NC(=O)CSc1nccc(C)n1 | 12.3 |
| COc1cccc(-c2nnc(NC(=O)Cc3cccs3)s2)c1 | 13.5 |
| CC1C=CCC2C(=O)N(c3cccc(C(=O)Nc4ccc(Br)cc4)c3)C(=O)C12 (stereo not shown) | 4.39 |
| COc1ccccc1NS(=O)(=O)c1ccc(C)c(C(=O)NC2=NCCS2)c1 | 3.58 |
| CN(CC(=O)NC1CCCc2ccccc21)C1CCCCC1 (stereo not shown) | 10.9 |
| COc1ccc(-c2nn3cnnc3s2)cc1OC | 5.46 |
| Cc1ccc2cc(C(c3nnnn3CC3CCCO3)N3CCc4ccccc4C3)c(=O)[nH]c2c1 (stereo not shown) | -5.09 |
| O=C(NCc1ccc2c(c1)OCO2)C(=S)N1CCOCC1 | 7.54 |
| COCCn1c(SCC(=O)N2CCC(C)CC2)nc2c(c1=O)SCC2 | -5.83 |
| COCCN(C(=O)c1cc(-c2ccncc2)nc2ccccc12)c1c(N)n(CC(C)C)c(=O)[nH]c1=O | 9.54 |
| COc1ccc(/C=C/C(=O)Nc2ccc(C34CC5CC(CC(O)(C5)C3)C4)cc2)cc1OC | 12.6 |
| CCOC(=O)CSc1nc2ccsc2c(=O)[nH]1 | 0.16 |
| O=C1C=C(Nc2ccc(O)cc2)C(=O)c2ccccc21 | 12.8 |
| CC1(C)CC(=O)C(C2=NC3(CCCCCC3)Cc3ccccc32)=C(O)C1 | 2.77 |
| Cc1c(NC(=O)C(C)Oc2ncnc3ccccc23)c(=O)n(-c2ccccc2)n1C (stereo not shown) | 3.53 |
| Cc1ccc(C(=O)Cn2ncsc2=N)cc1 | -0.998 |
| O=C(COC(=O)/C=C/c1ccccc1)Nc1nnc(-c2ccccc2)o1 | 9.69 |
| COc1ccc([C@H]2CC(=O)C=C(c3ccc(-c4ccccc4)c(F)c3)C2)cc1OC | 17.4 |
| O=C(Nc1ccc(Cn2nnc3ccccc32)cc1)c1ccco1 | 9.6 |
| O=C1CCC(C(=O)NCc2cccnc2)N1 (stereo not shown) | 17.5 |
| COc1ccc(Cl)cc1N(CC(=O)NC(C)(C)C)S(=O)(=O)c1ccc(C)c([N+](=O)[O-])c1 | 6.65 |
| Cc1cccc(OCC(=O)Nc2nnn(C)n2)c1C | 14.3 |
| CC(=O)c1sc(N/N=C\c2ccc(C)cc2)nc1C | 15 |
| Nn1c(SCc2cc([N+](=O)[O-])cc3c2OCOC3)nnc1-c1ccccn1 | 3.76 |
| CC(C)(C)C(=O)Nc1nnc(SCC(=O)NCc2cccs2)s1 | 12.4 |
